Laboratory results from PubChem BioAssay AID1745845 (National Center for Advancing Translational Sciences (NCATS), 2022).
Where “and” joins values, the source holds several entries; their conditions need not be identical. Identical values can stand only once. Among all 360,000 compounds or so, about 2,600 (0.72%) were called active. Inconclusive means that the source gave no clear call. Such entries were picked first, then a sample of the others. Calls come from the whole dose curve; as a rule, active = well fitted inhibition curve with a large enough effect; inconclusive = small, poorly fitted or top-dose-only effect; inactive = no such curve, though single readings can be large or run the other way. Potencies beside an inconclusive call are fits to weak or partial responses and may not hold up.

Test: Primary qHTS for Inhibitors of ATXN expression; note: nearly all actives have a fitted effect of over 55% in size
Conditions: HEK-293 ATXN2-luciferase reporter, luminescence, 24 h; activity change, negative = inhibition: at 57 µM (top of the series)
Outline: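 ATXN2-luciferase reporter cells (luciferase flanked by upstream and downstream ATXN2 gene portions) were treated 24 h at 37 °C with compounds at up to 57 uM. SteadyGlo luminescence gave expression; GF-AFC fluorescence gave viability.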
% is set by controls: 0 for no effect and ±100 for the full control effect; potency is the fitted concentration of half-maximal effect; tags give direction and shape of the fitted curve.

Row | Compound | Potency | activity change, negative = inhibition
1 | Clc1ccc(-c2cn3nc4c(nc3n2)CCCC4)cc1 | active: 14.1 µM | –
2 | COc1ccc(NS(=O)(=O)c2ccc(C(=O)Nc3c(C)n(C)n(-c4ccccc4)c3=O)cc2)cc1 | inconclusive: 0.355 µM [inhibitor, full curve, poor fit] | –
3 | CCOc1ccc(/C=N/NC(=O)c2cc3c(OC)cccc3[nH]2)cc1 | inconclusive: 20 µM [inhibitor, partial curve] | –
4 | Cc1c(-c2cc(Br)ccc2O)nc2cc3c(cc2c1C)OCO3 | – | inactive: 56.1%
5 | COc1cccc(NC(=O)CN(C)C(=O)c2cc(-c3cccc(Br)c3)nc3ccccc23)c1 | inconclusive: 39.8 µM [inhibitor, single point] | –
6 | CCOC(=O)C(=Cc1ccc(-n2cncn2)cc1)C(=O)OCC | inconclusive: 39.8 µM [inhibitor, single point] | –
7 | CC(C)NCC(O)COC1CCC(C(C)(C)C)CC1 (centres undefined) | inconclusive: 39.8 µM [inhibitor, single point] | –
8 | NC(=O)[C@@H](CCC(F)(F)F)N(Cc1ccc(-c2ncon2)cc1F)S(=O)(=O)c1ccc(Cl)cc1 | inconclusive: 15.3 µM [inhibitor, partial curve] | –
9 | COc1ccc(CNC(=O)C[C@H]2C(=O)N(CCc3ccccc3)C[C@@H]2Cc2ccccc2)cc1 | inconclusive: 35.5 µM [inhibitor, single point] | –
10 | O=C(COC(=O)c1ccccc1C(=O)c1ccc(Cl)c([N+](=O)[O-])c1)NC1CCCCCC1 | inconclusive: 39.8 µM [inhibitor, single point] | –
11 | O=C1C(Cl)=C(NCCCN2CCOCC2)C(=O)c2ccccc21 | inconclusive: 31.6 µM [inhibitor, single point] | –
12 | CC(C)Cc1ccc(C(C)/C=C2/CCC(CN3CCCCC3)C2=O)cc1 (centres undefined) | inconclusive: 28.2 µM [inhibitor, single point] | –
13 | COc1cccc(-n2nc(-c3ccnn3-c3ccccc3)c(=O)n(C)c2=O)c1 | – | inactive: -4.43%
14 | Cn1nnnc1Sc1ncnc2scc(-c3cc4ccccc4o3)c12 | active: 5.62 µM | –
15 | CCN1C[C@@H]2[C@@H]3C(=O)N(C)C(=O)[C@@H]3[C@](Cc3ccccc3)(C1=O)N2C(=O)c1ccc(F)cc1 | – | inactive: 2.71%
16 | COc1cc(C(=O)O/N=C(\N)Cc2ccc([N+](=O)[O-])cc2)cc(OC)c1OC | inconclusive: 9.47 µM [inhibitor, partial curve] | –
17 | O=C(Nc1ccc2c(c1)OCCO2)c1cnc2ccccn2c1=O | inconclusive: 10 µM [inhibitor, single point] | –
18 | Oc1ccc(Br)cc1CNc1cccc2cccnc12 | inconclusive: 3.16 µM [inhibitor, single point] | –
19 | Cc1ccc(C(=O)c2no[n+]([O-])c2C(=O)c2ccc(C)cc2)cc1 | inconclusive: 39.8 µM [inhibitor, single point] | –
20 | O=C1C=C(O)CC(c2ccc(Cl)cc2)C1 (centres undefined) | – | inactive: 3.84%
21 | CC(C)(C)C(=O)/C(=C/c1ccncc1)n1cncn1 | active: 15.8 µM | –
22 | O=S(=O)(/N=C(\c1ccccc1)N1CCOCC1)c1ccc(Cl)cc1 | – | inactive: -13.6%

Row | Compound | Potency | activity change, negative = inhibition
23 | Cc1ccc2c(c1)-c1c(cnn1CC(=O)N1CCN(c3ccccc3F)CC1)CO2 | – | inactive: 7.66%
24 | O=C(OCC12CC3CC(CC(C3)C1)C2)c1ccc(NCc2cc(O)ccc2O)cc1 | active: 10 µM | –
25 | Cc1ccc(NC2=C/C(=N/S(=O)(=O)c3cccs3)c3ccccc3C2=O)cc1 | active: 7.94 µM | –
26 | Cc1csc(NC(=S)Nc2cccc(Cl)c2)n1 | inconclusive: 39.8 µM [inhibitor, single point] | –
27 | CCOC(=O)c1c(NC(=S)Nc2cccc(C)c2)sc2c1CC(C)(C)SC2 | – | inactive: 8.41%
28 | Cc1cc(N2CCN(S(=O)(=O)c3ccc(Cl)cc3)CC2)c2ccccc2n1 | inconclusive: 31.6 µM [inhibitor, partial curve, poor fit] | –
29 | O=C(Cn1sc2ccccc2c1=O)Nc1ccc(Br)cc1 | – | inactive: -20.2%
30 | Cc1cccc(Cn2c(SCc3ccc(C(=O)NCc4ccccc4F)cc3)nc3ccncc32)c1 | inconclusive: 20 µM [inhibitor, partial curve, poor fit] | –
31 | CC[C@H](C)[C@H]1O[C@]2(CC[C@@H]1C)C[C@@H]1C[C@@H](CC=C(C)[C@@H](O[C@H]3C[C@H](OC)[C@@H](O[C@H]4C[C@H](OC)[C@@H](O)[C@H](C)O4)[C@H](C)O3)[C@@H](C)C=CC=C3CO[C@@H]4[C@H](O)C(C)=C[C@@H](C(=O)O1)[C@]34O)O2 | active: 3.55 µM | –
32 | Cc1ccc(S(=O)(=O)N(CC(=O)N=Nc2c(O)[nH]c3ccccc23)c2ccc(C)c(C)c2)cc1 | – | inactive: -15%
33 | CCOc1ccccc1NC(=O)c1nnn(-c2ccc3c(c2)OCCO3)c1N | – | inactive: -2%
34 | COc1cccc(CNc2nc3cc(-c4ccc(C(=O)N5CCN(C)CC5)cc4)sc3c(=O)n2C)c1 | inconclusive: 35.5 µM [inhibitor, single point] | –
35 | COc1ccccc1NC(=O)CCc1nc(-c2cccs2)no1 | – | inactive: 4.94%
36 | Nc1ncc(C(=O)O)c(-c2ccccc2)n1 | – | inactive: -11%
37 | CCCn1c(=O)c2[nH]c(C34CC5CC3C[C@@H](C5)C4)nc2n(CCC)c1=O | inconclusive: 21.7 µM [inhibitor, partial curve, poor fit] | –
38 | CCn1c2ccccc2c2cc(NC(=O)COC(=O)c3cc(OC)c(OC)cc3OC)ccc21 | inconclusive: 7.94 µM [inhibitor, partial curve, poor fit] | –
39 | COc1cc(OC)c(-c2nn3c(-c4ccco4)nnc3s2)cc1OC | inconclusive: 12.6 µM [inhibitor, partial curve, poor fit] | –
40 | Cc1nn(Cc2ccccc2)c(C)c1NC(=O)c1noc2c1CCc1ccccc1-2 | inconclusive: 39.8 µM [inhibitor, single point] | –
41 | CC(O)CNCCOc1ccccc1OCc1ccccc1 (centres undefined) | inconclusive: 7.52 µM [inhibitor, partial curve, poor fit] | –
42 | CSCCC(=O)Nc1cc(S(=O)(=O)N2CCOCC2)ccc1N1CCN(C)CC1 | – | inactive: -8.55%
43 | CCOc1ccc(C(C)=O)cc1COc1ccc(-n2cnnn2)cc1 | – | inactive: -17.3%
44 | CC(C)C[C@@H](CN1CCCC1CN1C(=S)NC[C@@H]1Cc1ccc(O)cc1)N1C[C@H](Cc2ccccc2)N(CCc2ccccc2)C1=S (some centres undefined) | – | inactive: -19.7%

Row | Compound | Potency | activity change, negative = inhibition
45 | Cc1ccc(C23CC4CC(CC(C(=O)NN)(C4)C2)C3)cc1 | inconclusive: 39.8 µM [inhibitor, single point] | –
46 | CCOC(=O)c1cc(-c2cccs2)nc2c1c(C)nn2-c1ccccn1 | inconclusive: 33.6 µM [inhibitor, single point] | –
47 | C/C=C(/CCC1NCCc2c1[nH]c1ccccc21)[Si](C)(C)C (centres undefined) | inconclusive: 37.7 µM [inhibitor, partial curve, poor fit] | –
48 | N#Cc1ccc(-c2ccco2)nc1SCC(=O)c1ccc(Cl)cc1 | inconclusive: 31.6 µM [inhibitor, partial curve, poor fit] | –
49 | CCSc1ncc(Cl)c(C(=O)Nc2sc3c(c2C(=O)NCc2cccnc2)CCCC3)n1 | inconclusive: 20 µM [inhibitor, partial curve, poor fit] | –
50 | CCOC(=O)C1=C(CN2CCN(c3ccc(OC)cc3)CC2)NC(=O)NC1c1ccc(Cl)cc1 (centres undefined) | inconclusive: 39.8 µM [inhibitor, single point] | –
51 | COc1ccc(/C=C/C(=O)Nc2ccc(C)c(S(=O)(=O)N3CCOCC3)c2)cc1 | active: 22.4 µM | –
52 | COc1cc(-c2nc3ccc4ccccc4c3c3c2CCC3)cc(OC)c1O | inconclusive: 35.5 µM [inhibitor, single point] | –
53 | CCn1cnc2c(=O)oc3ccc(S(=O)(=O)Nc4ccc(OC)cc4)cc3c21 | inconclusive: 39.8 µM [inhibitor, single point] | –
54 | Cc1cc(C)nc(/N=C(\N)Nc2ccc(C(C)C)cc2)n1 | inconclusive: 22.4 µM [inhibitor, partial curve, poor fit] | –
55 | O=C(CSc1nnc(-c2ccccc2)o1)Nc1ccccc1F | inconclusive: 14.1 µM [inhibitor, single point] | –
56 | O=C(NCc1ccccn1)C1Nc2ccc(OC(F)(F)F)cc2C2C=CCC12 (centres undefined) | – | inactive: -10.4%
57 | CC(C)CC(=O)Nc1cc(-c2ccccc2F)nn1-c1ccccc1 | – | inactive: -19.6%
58 | O=C(Nc1cccc(C(F)(F)F)c1)C1Cc2c(-c3ccccc3Oc3ccccc3)ccnc2O1 (centres undefined) | inconclusive: 39.8 µM [inhibitor, single point] | –
59 | O=C(O)c1cccc2c1C(=O)c1ccccc1-2 | – | inactive: 9.81%
60 | CC[C@]1(O)C[C@@H]2CN(CCc3c([nH]c4ccccc34)[C@@](C(=O)OC)(c3cc4c(cc3OC)N(C)[C@H]3[C@@](O)(C(=O)OC)[C@H](OC(C)=O)[C@]5(CC)C=CCN6CC[C@]43[C@@H]65)C2)C1 | inconclusive: 39.8 µM [inhibitor, partial curve, poor fit] and inconclusive: 28.2 µM [inhibitor, partial curve, poor fit] and inconclusive: 7.08 µM [inhibitor, single point] | –
61 | Cc1ccc(-c2nnc(N3CCN(C(=O)Cn4c(=O)n(C)c5ccccc54)CC3)c3ccccc23)cc1 | – | inactive: -0.776%
62 | CCn1c(-c2nonc2N)nc2cnc(Oc3cccc(NC(=O)c4ccc(OCCN5CCOCC5)cc4)c3)cc21 | inconclusive: 19.3 µM [inhibitor, partial curve] | –
63 | Cc1ccc(NC(=O)c2cc(S(=O)(=O)N3CCOCC3)ccc2Cl)cc1S(=O)(=O)N1CCOCC1 | – | inactive: 10%
64 | CCOC(=O)c1sc(=NC(=O)CCS(=O)(=O)c2ccccc2)n(C)c1C | – | inactive: -13.6%
